Test results reported in the RNAGym collection of RNA variant scans (doi:10.1073/pnas.2313332121).
This sample is rich in variants without activity.

B1: TPR 5TU (parent)
chain: GGAUCUUCUCGAUCUAACAAAAAAGACAAAUCUGCCACAAAGCUUGAGAGCAUCUUCGGAUGCAGAGGCGGCAGCCUUCGGUGGCGCGAUAGCGCCAACGUUCUCAACUAUGACACGCAAAACGCGUGCUCCGUUGAAUGGAGUUUAUCAUG

Variants of: B1
Assay: polymerase ribozyme fitness, log enrichment relative to wild type (log ratio); higher = more active; in vitro selection for triplet polymerase activity
Summary of the method: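 Both subunits of a heterodimeric triplet polymerase ribozyme were given their own mutant library, built by PCR and transcribed. Each library was annealed with a biotinylated primer, the partner subunit and triplets, incubated frozen at −7 °C, and its extended constructs gel-excised, captured on streptavidin beads and amplified by RT-PCR, all in one round done in triplicate. Fitness is the logarithm of genotype enrichment relative to wild-type enrichment, with replicates averaged by inverse-variance weighting. That logarithm is base 2, and Illumina-sequenced genotypes needed ≥10 input reads and ≥1 read per output.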

Row | Variant | polymerase ribozyme fitness (log ratio)
1 | C14U G34U G68A C85U U144A C149A | ≤ -4.2
2 | C14U G48U U55A A73U A91U C99A A138G U144C | ≤ -4.2
3 | C14U G50C C75G | ≤ -4.2
4 | C14U G50C C76A G84A C108G C129A | ≤ -4.2
5 | C14U G50C G74C C93U A115U C116U U151A | ≤ -4.2
6 | C14U G58A C63U A66C C96A C108U | ≤ -4.2
7 | C14U G58C C85U A89G G136A | -3.44
8 | C14U G59A C85U U134A | -4.12
9 | C14U G62C C75A C93G | ≤ -4.2
10 | C14U G70C C76A C85G G126C G140A | ≤ -4.2
11 | C14U G71A C79A C85U C131A | ≤ -4.2
12 | C14U G74A G94A A122G | ≤ -4.2
13 | C14U U15A C57A C93U A110C | ≤ -4.2
14 | C14U U15G U45A G58U C75G U135C | ≤ -4.2
15 | C14U U31A A64C C75A C93G C103U | ≤ -4.2
16 | C14U U53C C85G U90G C96G G124U C132U | ≤ -4.2
17 | C14U U53G A97G C123G | ≤ -4.2
18 | C14U U56G G83U C95U C116U | -3.87
19 | C14U U135C | -3.88
20 | U15A A16U U31C G42A C87G A97G A98U | ≤ -4.2
21 | U15A A17C A23U U55A G84A G92A G94A U102G C116G | ≤ -4.2

Row | Variant | polymerase ribozyme fitness (log ratio)
22 | U15A A20C C87G G124C | ≤ -4.2
23 | U15A A20G U44A A121C G136U | ≤ -4.2
24 | U15A A22C C27U U31G C38U G92U G133U U144C | ≤ -4.2
25 | U15A A22G C36A C72U C85U C132U | ≤ -4.2
26 | U15A A24G G25U C32A U56A G59C U82G C103G | ≤ -4.2
27 | U15A A29C C38U A119U G126A U144A C149G | ≤ -4.2
28 | U15A A37U G94C A137C G141C | ≤ -4.2
29 | U15A A39U C96U C114A A122G C123U C125A | -4.11
30 | U15A A40C | 0.538
31 | U15A A49U A73G U82G A107U | ≤ -4.2
32 | U15A A73C G94A | -3.39
33 | U15A C27U A40U U45A U61G C79G C87A A91G | ≤ -4.2
34 | U15A C32A U56G G58U G84U C108U U139G | ≤ -4.2
35 | U15A C36A A49U U55A A60C G68A C87G C118U G141C C149G | ≤ -4.2
36 | U15A C36U C87U G124U A137C | -4.03
37 | U15A C57U C63A G68A C87U A122U | ≤ -4.2
38 | U15A G25A G42C C79A | ≤ -4.2
39 | U15A G25A G67C A73U U77A C87A G124U G143C | ≤ -4.2
40 | U15A G25U U55G C57A C76A C85A A137G | ≤ -4.2
41 | U15A G50U C95G C132G | ≤ -4.2
42 | U15A G50U G86A C114U | -3.13

Row | Variant | polymerase ribozyme fitness (log ratio)
43 | U15A G92U C96G C105G C108G C118G G141A | ≤ -4.2
44 | U15A U44G G80C A113G U146C | ≤ -4.2
45 | U15A U82G C85G A110C | ≤ -4.2
46 | U15A U90A C95U A121U U127A | ≤ -4.2
47 | U15C A19C C85U C87U | 0.246
48 | U15C A20U A41U C57G A98G | -1.74
49 | U15C A22C C36A A106G G143A | ≤ -4.2
50 | U15C A23U A64U U82A C85U C125U C149U | ≤ -4.2
51 | U15C A24C U55A C69G C132G U135A | ≤ -4.2
52 | U15C A28C A40G C43A G84U C125A | ≤ -4.2
53 | U15C A28G C51A G71U C95U G133U U145G | ≤ -4.2
54 | U15C A40G G67A G94A G100A A107U | ≤ -4.2
55 | U15C A41G C69A C87A U146G G152U | ≤ -4.2
56 | U15C A60U A64C C79U U90G C96U C123U | ≤ -4.2
57 | U15C C18U C85G C118U G136U | -3.19
58 | U15C C36U A52C U55A A64G A73U C87G U145C | ≤ -4.2
59 | U15C C36U A66U G74U C76G G141A | ≤ -4.2
60 | U15C C38U A49G C103G G141U | ≤ -4.2
61 | U15C C79A C96U U101C G126U | ≤ -4.2
62 | U15C C93G | -2.27
63 | U15C C93U A122U | -0.873

Row | Variant | polymerase ribozyme fitness (log ratio)
64 | U15C G50A C54U G84U A91C C118A U144A C149G | ≤ -4.2
65 | U15C G59U C95G A113G G136C | ≤ -4.2
66 | U15C G86A C103G C105G A120G G133U A142U | ≤ -4.2
67 | U15C U31G U56A A73G C95U G100U A113C U144G | ≤ -4.2
68 | U15C U44G U53A C85U A113U G126A G133C U146G | ≤ -4.2
69 | U15G A17C C18A C87G A110G A115C | ≤ -4.2
70 | U15G A19C A39G G68U G70U U90A C93G A97U C123U G128U | ≤ -4.2
71 | U15G A19G C54U G62A C95U C103A G124U | ≤ -4.2
72 | U15G A20C G42U A52G C85U C93G C103A | ≤ -4.2
73 | U15G A20U C54U C85G G94U U104C | -2.12
74 | U15G A20U C85A G126A G133U | ≤ -4.2
75 | U15G A21C C38U A40G C57U C76G C99G G128A G140C | ≤ -4.2
76 | U15G A22C A28G A89G G92A G136A G143C | ≤ -4.2
77 | U15G A22C U148G | ≤ -4.2
78 | U15G A22U C36G G67A C116A U134A A142U U145C | ≤ -4.2
79 | U15G A23C U44G U45G G46A G92C A138C | ≤ -4.2
80 | U15G A26U C38U A64G G74A G86U U146G | ≤ -4.2
81 | U15G A26U C54G A60C C85G U111A A142C U146A | ≤ -4.2
82 | U15G A28C C36U A60U | ≤ -4.2
83 | U15G A28G C35G A73U A142G | ≤ -4.2
84 | U15G A29C U56A G71U G83A C85A G128A | ≤ -4.2
